# Test results from the supplement of paper PMC11417369.
# ± gives the standard deviation of the averaged measurements. This is one part of the list.
# Tested on: PfAP2-EXP AP2 domain (GST-tagged)
# Test: gcPBM binding intensity (ln(normalized median fluorescence intensity)); higher = stronger DNA binding
# Summary of the method: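 Using an Agilent 4 × 180k array, primer-extended double-stranded 36-bp intergenic genomic probes and negative controls were exposed for 1 h to GST-fused P. falciparum DNA-binding domains expressed in E. coli. Binding was carried out in 1× PBS with 1% milk, 0.2 mg/ml BSA, 0.5% salmon testes DNA and 0.03% Triton X-100, and protein was detected with Alexa488 anti-GST antibody and a 488 nm scan. Binding intensity is the highest Masliner-normalised natural-log median intensity across replicate spots of either probe orientation.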
row,Sequence,gcPBM binding intensity (ln)
1,AACATGTTAACTAAATGTACACACCTATGTTGATGT [XGTACX_site3777],8.54 ± 0.35
2,TGAAGGATATATTCCGTGCACATATAAATATATACA,8.735 ± 0.007
3,GGAAAACACAAAAACTGTACATTTATTCAACATATA [XGTACX_site5831],8.62 ± 0.47
4,TATATACATATATACACACACATATATATATATATA [CACACA_site2805],9.98 ± 0.45
5,ATAGGTAAAAAGTATACACACGTTGACACATTCTTT [CACACA_site4794],8.52 ± 0.58
6,ATTTTAAAAAGGATAGTGCAAATGTTAAAATAGGAC,9.42 ± 0.35
7,AAATAATACAAGGGCTGTACATAAAAAGGAGTATAT [XGTACX_site839],9.23 ± 0.47
8,GTATATATCCCAAAATGTACATAATTTATTATTTAT [XGTACX_site2842],8.51 ± 0.42
9,AGAAAAAAAAAAAGTACACACATATAACATATAGAT [CACACA_site7410],8.73 ± 0.49
10,ATTTATTTTCTGTGTACACATATGTTGGGTATTTTA [CACACA_site5902],9.14 ± 0.45
11,TTTTATTTATAATACTCACACATTTATATTACATAT [CACACA_site6000],8.55 ± 0.34
12,CAAAAGGATGTGGGATGTACATATGAAAAAAAAAAA [XGTACX_site8059],8.9 ± 0.63
13,ATTACTAAAAAATATAAACACACATATATTTTACAT [CACACA_site8633],8.45 ± 0.35
14,TAAATTTAAAAATCTGCACACATTTAAAAAAAAAAA [CACACA_site2515],8.39 ± 0.33
15,TTGTATGTAAAAAAGTGTACATGAGTGATTATATAA [XGTACX_site8166],8.74 ± 0.4
16,GGTCTTTTTTTCAAAAGTACATAAATAAAAAAGGTT [XGTACX_site2894],8.74 ± 0.47
17,GAAAATTTAAAAAGAGTGCATTATATGTTTGAATAT [GTGCAC_site9564],8.77 ± 0.028
18,AATAAAATAATAAAAGCACACAAGAATACACCCAAA [CACACA_site7919],9 ± 0.33
19,TTTAACGAATAAAAATGTACAAATTTATACATTTAT [XGTACX_site2805],8.29 ± 0.42
20,CTTTTTTTCTTTCCAAGTACTAAATTCATACAAATT [XGTACX_site2605],8.63 ± 0.33
21,ATAATAACTGATAAATGTACATATAAATTTTATGAT [XGTACX_site195],8.73 ± 0.36
22,AGGATATGCGGACACACACACATATATATATATATA [CACACA_site5247],10.1 ± 0.47
23,ATAATTTAAAAACATTGTACATTAATATATATGTAT [XGTACX_site8970],8.28 ± 0.3

row,Sequence,gcPBM binding intensity (ln)
1,ATACTCACGAAACACACACACAATATATATATATAT [CACACA_site4136],10.1 ± 0.48
2,TTTATATTTCTTCATCGTACACATAAAAAAAAAAAA [XGTACX_site3244],8.68 ± 0.41
3,GAAAATATTAAATGAAGTACAATATTTATGTTACTT [XGTACX_site8737],8.34 ± 0.34
4,TTTTATATTTTAAGAGTGCATTTTATATCTTTTTCT,8.48 ± 0.24
5,TGAAAGAATGTTAATAGTACACACAATTATTATATA [XGTACX_site7936],8.48 ± 0.32
6,ATTGATATTGTATAATGTACAGGAAAAAAAAAAAAA [XGTACX_site526],8.71 ± 0.52
7,TAAGAACTATTCAGTAGTACCTATATGGATTACTAA [XGTACX_site4278],8.04 ± 0.38
8,TGAAAGAACCTGATTACACACATAAGTTATAAATAT [CACACA_site6165],8.3 ± 0.54
9,TTCTTTATTTTTTCTACACACATTATGTATTCAAAG [CACACA_site3527],9.04 ± 0.43
10,AATATATATTTGTGTACACATTATATATATATATAT [CACACA_site6103],10 ± 0.35
11,AATCTCAGAATATACTGTACTTTAAGAAAAAAAAAA [XGTACX_site110],8.32 ± 0.31
12,AAAATTTAAATAGGAAGTACGTTCACTAAGAAAATA [XGTACX_site6546],9.05 ± 0.52
13,AAATAAAGATATATATATATATATATATATAATTTT [CACACA_negctrl_site30],8.59 ± 0.23
14,AATATAAAAAGGCACACACACAAAAAAAAAAAAAAA [CACACA_site896],8.26 ± 0.49
15,AAATATTTTGCATACACATGCAAATATTTTTTACAT [TGCATGCA_site554],8.6 ± 0.085
16,CATAAATCAGCCATAACACACATACCTATATACATA [CACACA_site6324],8.44 ± 0.42
17,AAAATGTGCATATTTGCACACTTCAATATATATATA [CACACA_site1791],9.73 ± 0.18
18,ATAGGTTCCCAAAATGCACACCAATGAAATTATTTA [CACACA_site8081],8.655 ± 0.007
19,CAAGCTTTTTCCTTTACACACATTAGTTATTTATAT [CACACA_site6781],8.84 ± 0.61
20,ATATTATTTTAAAGTACACACATATATTAAGATATA [CACACA_site5306],8.44 ± 0.26
21,CAGTATTACATGAGGACACACACAAAAAAAATATAT [CACACA_site8156],8.97 ± 0.63
22,TTAATATATTATCTGGTGCATAAACACGTTATACCT,8.84 ± 0.2
23,TATTTTATATTTTATGCACACTTATAAGAAATATGT [CACACA_site5647],8.71 ± 0.28

row,Sequence,gcPBM binding intensity (ln)
1,ATGATTTCACAAGACACACACATACAAATTTATATA [CACACA_site3909],8.7 ± 0.32
2,TATTAATATGGTAATACACACTAATATACTTTTGTT [CACACA_site6860],8.32 ± 0.41
3,ATATATATATATATATGTACGTATTCATAAACAACA [XGTACX_site4282],10.2 ± 0.6
4,TTTAATGTTACTCCTTGTACACAAAATAGTGTTATA [XGTACX_site8416],8.47 ± 0.28
5,CTGTAAAAAATATAAACACACATAGAGATATATAAA [CACACA_site6292],8.7 ± 0.41
6,TAAGTATATTTTATATGTACTTATATATTTAATTTT [XGTACX_site4615],7.99 ± 0.071
7,TTTAAAATTATAAGGATTAAAAAAAAAAAAAATAAA [CACACA_negctrl_site114],8.27 ± 0.45
8,AACAAATAAAAAAAAATAAAAATAAAAATAAAAAAA [XGTACX_negctrl_site451],8.38 ± 0.38
9,TTATTTATGAAGTATACACACAATATAGATTTATAT [CACACA_site6703],8.39 ± 0.45
10,AAGAATTATATTAATAGTACATATATATTAATTTAT [XGTACX_site5713],8.22 ± 0.45
11,TTTTGTTATTATAAATAGTAACATTTGTGAATATAT [TGCATGCA_negctrl_site132],8.26 ± 0.55
12,AAGACATTTTTTTGTTGTACGTCTTCATTTATTGTA [XGTACX_site2890],8.71 ± 0.28
13,ATGGAAGGATAATAAAAACCTTTACCTTTCTGTTTA [GTGCAC_negctrl_site380],8.12 ± 0.25
14,ATAATGAAAACAAGCACACATACATAAAATAAAATA [CACACA_site3257],8.89 ± 0.49
15,ATAAATTTTTAAACAGCACACATAAATATAATATAT [CACACA_site8691],8.75 ± 0.34
16,AATATTACAATTTGGTGTACAGGTGCACATGCCTCA [XGTACX_site1730],9.4 ± 0.51
17,TAGCTTATAAGATATGCACACACAACACTTACAAAA [CACACA_site8174],8.59 ± 0.46
18,TCTACAATTTTAATTACACACTATAAAAAAGAAAGA [CACACA_site5624],8.57 ± 0.45
19,ACTTGTAAGAGACACACACACACACGGATATAAATA [CACACA_site6517],8.91 ± 0.53
20,ACACATATATTAAATGTGCACTGAAATATGCATATA [GTGCAC_site9936],8.85 ± 0.14
21,TTATTTTCCCTTTGTGCATGCAGTTTACTTTTTGTG [TGCATGCA_site993],10.4 ± 0.64
22,ATATATGTATATTTATGTACGTATTCCTGTATAGTC [XGTACX_site5763],8.57 ± 0.3
23,CAAAATAAAAATAACACACACATTTATTTATATACA [CACACA_site6679],8.47 ± 0.42

row,Sequence,gcPBM binding intensity (ln)
1,ACACAAGCACACAAATGTACATATATATATATATAT [XGTACX_site5146],10.2 ± 0.13
2,GGAAAAAAAAATAAATGTACGAATTAACATATCAAA [XGTACX_site5653],8.48 ± 0.42
3,GTAACATTTTAAATATATACATATAATGTATTTATA [GTGCAC_negctrl_site344],8.21 ± 0.35
4,ATTAATTAAAAGGGAACACATAGAAATTATAAAACA [GTGCAC_negctrl_site420],9.11 ± 0.4
5,ATATATATATTATGGGGTACAAACATCAAAAGATTT [XGTACX_site3944],9.38 ± 0.26
6,TGTTGTATCAATTTTTGTACATAACACATATGTATA [XGTACX_site3666],8.26 ± 0.23
7,ATTAAACCGTGGGAGCACACACACACACACACACAT [TGCATGCA_negctrl_site72],8.8 ± 0.45
8,TATAAAAGATTGGAATGTACATAAGAAAAAAATATA [XGTACX_site5028],9.05 ± 0.46
9,TGTGTAGGGGATATTCTACTTTAAAAATAAATATAT [CACACA_negctrl_site207],8.75 ± 0.38
10,TTCAAGATTTATTATACACACATATTAATATTTATA [CACACA_site6413],8.67 ± 0.35
11,AATCATATTAGTATGGTGCAACATATATAAATATAT,8.59 ± 0.26
12,GGCCCAACTTCTTCTGACGAAAACGTAAATTGTGTG [XGTACX_negctrl_site533],8.73 ± 0.49
13,CCACATGATATGATTACACACATATATATATTTACA [CACACA_site164],8.62 ± 0.41
14,ATTCTATTATAATACACACCCAAATATTAAAAAGAT [CACACA_site2960],9.06 ± 0.49
15,GATGTTGCAAAATTCTGTACATATAAATGTATACAT [XGTACX_site5009],8.69 ± 0.3
16,TATTATATATATATATGTACATATATATGCTAAAAA [XGTACX_site5297],8.53 ± 0.38
17,TAATGAATTTAAATTTTAAAATTAATAAAAAAAATA [TGCATGCA_negctrl_site15],8.37 ± 0.49
18,CAAAATGTTTCTCATTGTACACAAAATAAATGTCCT [XGTACX_site6798],8.32 ± 0.28
19,ACATTTACAAGGAAAGTGCATATAAGAAAAATAAAA [GTGCAC_site9587],8.95 ± 0.25
20,ATTAGTAAATTTATATGTACACATTGTTATTTTATA [XGTACX_site1177],8.68 ± 0.26
